The other results are listed elsewhere or left out.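 Rule for the calls: active = permutation test q below 0.05 after Benjamini-Hochberg correction; inactive = q of 0.05 or more.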
Test system: A549
Assay: mean average precision of replicate retrieval against DMSO controls (Cell Painting phenotypic activity) (fraction (0-1)); higher = stronger, more reproducible morphological phenotype distinct from DMSO; extreme values may be limits of the assay
Conditions: 24 h; 5 µM
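Note: cosine similarity of well-level aggregated Cell Painting profiles ranks each compound's replicate wells against DMSO wells, four replicate plates, significance from 100,000 rank shuffles.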

Mean average precision, active:
CN1C(=O)N(c2cc(Cl)cc(Cl)c2)C(=O)[C@]12CN(Cc1cc(C(=O)O)cs1)C[C@H]2c1ccc(C#N)cc1 0.347
CCCCOc1ccc(CC(=O)NO)cc1 0.326
CCCCC(C)(O)C/C=C/[C@H]1[C@H](O)CC(=O)[C@@H]1CCCCCCC(=O)OC (stereo not given in full) 0.703
CC(=O)c1ccc(S(=O)(=O)NC(=O)NC2CCCCC2)cc1 0.365
N#Cc1ccc(-c2ccc(S(=O)(=O)Nc3cccc(N)n3)cc2)cc1 0.477
O=C(/C=C/c1cccnc1)NCCCCC1CCN(C(=O)c2ccccc2)CC1 0.976
O=C(O)[C@@H]1CCCN1 0.377
OC[C@H]1O[C@@H](n2cnc3c2NC=NC[C@H]3O)C[C@@H]1O 0.573
CCN1/C(=C/C(C)=O)Sc2ccc(OC)cc21 1
COc1cc2c(Oc3ccc4[nH]c(C)cc4c3F)ncnc2cc1OCCCN1CCCC1 1
NC(N)=NC(=O)c1nc(Cl)c(N)nc1N 0.979
Cc1ccc(-c2nn(C(C)(C)C)c3ncnc(N)c23)cc1 1
COc1ccc(/C=C/C(=O)Nc2ccccc2C(=O)O)cc1OC 0.697
COc1ccccc1S(=O)(=O)Nc1ccc2c(c1)CN(C)C(=O)N2 0.84
N=C(N)c1ccc2cc(OC(=O)c3ccc(N=C(N)N)cc3)ccc2c1 0.684
CCC[C@H](Nc1nc(-c2ccc(NC(=O)NCC)c(OC)c2)ncc1C)c1cccnc1 0.959
C=C[C@H]1CN2CC[C@H]1C[C@@H]2[C@@H](O)c1ccnc2ccc(OC)cc12 0.77
CC(C)Oc1ccc(-c2nc(-c3cccc4c3CC[C@@H]4NCCO)no2)cc1C#N 0.681
CCOC(=O)[C@H](Cc1ccccc1)NC(=O)c1cc(Cl)c(OCCN2CCN(C)CC2)c(Cl)c1O 0.979
Cc1cc(-c2ncc(CC(=O)Nc3ccc(-c4cnccn4)cn3)cc2C)ccn1 0.712
CC(C)[C@H](CO)Nc1nc(Nc2cc(N)cc(Cl)c2)c2ncn(C(C)C)c2n1 1
Cc1noc(-c2ccc(CSCCC(=O)O)cc2)c1NC(=O)OC(C)c1ccccc1Cl (stereo not given) 1
CO[C@@H](C(=O)N1Cc2[nH]nc(NC(=O)c3ccc(N4CCN(C)CC4)cc3)c2C1)c1ccccc1 1
Nc1cc(F)ccc1NC(=O)/C=C/c1cnn(C/C=C/c2ccccc2)c1 0.938
CCOC(=O)[C@H]1O[C@@H]1C(=O)N[C@@H](CC(C)C)C(=O)NCCC(C)C 1
CC(C)[C@H](CO)Nc1nc(Nc2cccc(Cl)c2)c2ncn(C(C)C)c2n1 1
O=C(O)c1cc(N=Nc2ccc(S(=O)(=O)Nc3ccccn3)cc2)ccc1O 0.484

Mean average precision, inactive:
CC[C@H](C)[C@@H]1NC(=O)[C@H](Cc2ccc(O)cc2)NC(=O)[C@@H](N)CSSC[C@@H](C(=O)N2CCC[C@H]2C(=O)N[C@@H](CC(C)C)C(=O)NCC(N)=O)NC(=O)[C@H](CC(N)=O)NC(=O)[C@H](CCC(N)=O)NC1=O 0.103
Cc1ccc(Cl)c(Nc2ccccc2C(=O)O)c1Cl 0.218
CN(C(=O)c1ccc(F)cc1C(F)(F)F)C1CCN(c2nnc(-c3ccnn3C)c3ccccc23)CC1 0.265
Cc1cc(C)cc(C(=O)N(C)[C@H](Cc2ccc(-c3ccccc3)cc2)C(=O)N[C@@H](Cc2c[nH]c3ccccc23)C(=O)O)c1 0.127
O=C(O)/C=C/c1ccc(Cn2ccnc2)cc1 0.133
CCOC(=O)C(C)=O 0.152
CN(C)CC/C=C1/c2ccccc2COc2ccc(CC(=O)O)cc21 0.303
O=c1n(CCCN2CCN(c3cccc(Cl)c3)CC2)nc2ccccn12 0.1

Same assay, conditions: 48 h; 5 µM

Mean average precision, inactive:
CC[C@H](C)[C@@H]1NC(=O)[C@H](Cc2ccc(O)cc2)NC(=O)[C@@H](N)CSSC[C@@H](C(=O)N2CCC[C@H]2C(=O)N[C@@H](CC(C)C)C(=O)NCC(N)=O)NC(=O)[C@H](CC(N)=O)NC(=O)[C@H](CCC(N)=O)NC1=O 0.267
Cc1cc(C)cc(C(=O)N(C)[C@H](Cc2ccc(-c3ccccc3)cc2)C(=O)N[C@@H](Cc2c[nH]c3ccccc23)C(=O)O)c1 0.134

Mean average precision, active:
CN1C(=O)N(c2cc(Cl)cc(Cl)c2)C(=O)[C@]12CN(Cc1cc(C(=O)O)cs1)C[C@H]2c1ccc(C#N)cc1 0.488
CCCCOc1ccc(CC(=O)NO)cc1 0.5
CCCCC(C)(O)C/C=C/[C@H]1[C@H](O)CC(=O)[C@@H]1CCCCCCC(=O)OC (stereo not given in full) 1
CC(=O)c1ccc(S(=O)(=O)NC(=O)NC2CCCCC2)cc1 0.931
N#Cc1ccc(-c2ccc(S(=O)(=O)Nc3cccc(N)n3)cc2)cc1 0.495
Cc1ccc(Cl)c(Nc2ccccc2C(=O)O)c1Cl 0.744
O=C(/C=C/c1cccnc1)NCCCCC1CCN(C(=O)c2ccccc2)CC1 1
CN(C(=O)c1ccc(F)cc1C(F)(F)F)C1CCN(c2nnc(-c3ccnn3C)c3ccccc23)CC1 0.85
O=C(O)[C@@H]1CCCN1 0.397
OC[C@H]1O[C@@H](n2cnc3c2NC=NC[C@H]3O)C[C@@H]1O 0.652
CCN1/C(=C/C(C)=O)Sc2ccc(OC)cc21 1
COc1cc2c(Oc3ccc4[nH]c(C)cc4c3F)ncnc2cc1OCCCN1CCCC1 1
NC(N)=NC(=O)c1nc(Cl)c(N)nc1N 1
Cc1ccc(-c2nn(C(C)(C)C)c3ncnc(N)c23)cc1 1
COc1ccc(/C=C/C(=O)Nc2ccccc2C(=O)O)cc1OC 0.851
O=C(O)/C=C/c1ccc(Cn2ccnc2)cc1 0.365
COc1ccccc1S(=O)(=O)Nc1ccc2c(c1)CN(C)C(=O)N2 1
N=C(N)c1ccc2cc(OC(=O)c3ccc(N=C(N)N)cc3)ccc2c1 1
CCC[C@H](Nc1nc(-c2ccc(NC(=O)NCC)c(OC)c2)ncc1C)c1cccnc1 1
CCOC(=O)C(C)=O 0.615
C=C[C@H]1CN2CC[C@H]1C[C@@H]2[C@@H](O)c1ccnc2ccc(OC)cc12 0.979
CC(C)Oc1ccc(-c2nc(-c3cccc4c3CC[C@@H]4NCCO)no2)cc1C#N 1
CCOC(=O)[C@H](Cc1ccccc1)NC(=O)c1cc(Cl)c(OCCN2CCN(C)CC2)c(Cl)c1O 1
Cc1cc(-c2ncc(CC(=O)Nc3ccc(-c4cnccn4)cn3)cc2C)ccn1 1
CN(C)CC/C=C1/c2ccccc2COc2ccc(CC(=O)O)cc21 0.576
CC(C)[C@H](CO)Nc1nc(Nc2cc(N)cc(Cl)c2)c2ncn(C(C)C)c2n1 1
Cc1noc(-c2ccc(CSCCC(=O)O)cc2)c1NC(=O)OC(C)c1ccccc1Cl (stereo not given) 1
CO[C@@H](C(=O)N1Cc2[nH]nc(NC(=O)c3ccc(N4CCN(C)CC4)cc3)c2C1)c1ccccc1 1
Nc1cc(F)ccc1NC(=O)/C=C/c1cnn(C/C=C/c2ccccc2)c1 1
CCOC(=O)[C@H]1O[C@@H]1C(=O)N[C@@H](CC(C)C)C(=O)NCCC(C)C 1
CC(C)[C@H](CO)Nc1nc(Nc2cccc(Cl)c2)c2ncn(C(C)C)c2n1 1
O=c1n(CCCN2CCN(c3cccc(Cl)c3)CC2)nc2ccccn12 0.785
O=C(O)c1cc(N=Nc2ccc(S(=O)(=O)Nc3ccccn3)cc2)ccc1O 0.863

— the supplement of paper PMC11166567
